Measurements from PubChem BioAssay AID2060513 (Molecular Pharmacology Branch, DTP, NCI, 2025).
Certain results were filed several times, with different values. This is not the full list of results. An entry can have further records. Values that stand side by side repeat one measurement (runs, samples, wells, individuals or studies). Counts like (3×) count equal records among those shown.

Test system: 299254-011-R-J1-PDC complex spheroids viability
Assay: Anticancer human tumor 299254-011-R-J1-PDC patient-derived melanoma cell line growth inhibition [GQUAD]
Details: for viability, T/C: stronger effect = lower value
Description: DNA G-quadruplex Stabilizer Agents in Combinations in Complex Spheroids
A high-throughput screen of multi-cell type tumor spheroids was designed to identify active combinations of DNA G-quadruplex stabilizer agents and targeted small molecules. Complex spheroids include a stromal component modeled by human endothelial cells (HUVEC) and fibroblasts modeled by human mesenchymal stem cells (MSCs). The concentration ranges selected for each drug and investigational agent were based upon clinically achievable concentrations if the clinical Cmax of the agent was known.
Compounds. The drugs and investigational agents: pidnarulex (CX-5461; NSC782164), APTO-253 (NSC789042), BRACO-19 (NSC847499), peposertib (NSC802822), ceralasertib (NSC780249), elimusertib (NSC800525), camonsertib (NSC841442), AZD-1390 (NSC803789), olaparib (NSC753686), talazoparib (NSC767125), ART-558 (NSC835418), sotorasib (NSC818433), MRTX-1133 (NSC836407), SN-38 (NSC673596), topotecan (NSC609699), etoposide (NSC141540), doxorubicin (NSC123127), gemcitabine (NSC613327), 5-fluorouracil (NSC19893), paclitaxel (NSC125973), vemurafenib (NSC761431), panobinostat (NSC761190), R-306465 (JNJ-16241199; NSC773264), adavosertib (NSC754352), TP-3654 (NSC805149), carboplatin (NSC241240), KSQ-4279 (NSC840948), and staurosporine (NSC755774) were obtained from the National Cancer Institute (NCI) Developmental Therapeutics Program Chemical Repository (34). The FDA-approved anticancer drug set is available from the NCI Developmental Therapeutics Program. […] The stock solutions were prepared in dimethyl sulfoxide (DMSO, Sigma-Aldrich, St. Louis, MO, cat. D2650) at 800-fold the tested concentration and stored at -70 degrees C prior to their use. All drugs and investigational agents were tested over a range starting from a high concentration at or near the clinical Cmax and decreasing in half-log increments. If the clinical Cmax for an agent had not been determined, the highest concentration tested was 10 microM.
2.3 Cell Culture. All cells were maintained in an incubator at 37 degrees C and 5% CO2 with 95% humidity. The PDC lines were cultured according to standard operating procedures established by the NCI PDMR. All PDCs were thawed and cultured in Matrigel-coated flasks prepared with a working solution of 1X Ham's F-12 nutrient mix, without supplementation (Invitrogen, cat. 11765054), 100 U/mL penicillin-streptomycin (Invitrogen, cat. 15140122), and 2.5% Matrigel (Corning Inc., cat. 354248) for the first three passages. The 857933-349-R-J2-PDC line was cultured in 6C/Colon 1B media, which includes advanced DMEM/F-12 (Thermo Fisher Scientific, cat. 12634028), 10 mM HEPES (Thermo Fisher Scientific, cat. 15630080), 1X GlutaMAX supplement (Thermo Fisher Scientific, cat. 35050061), 0.1 mg/mL primocin (InvivoGen, cat. ant-pm-2), 10% defined fetal bovine serum, heat inactivated (HyClone Laboratories Inc., cat. SH30070.03HI), 50% L-WRN conditioned media (ATCC, cat. CRL-3276), 1.25 mM N-Acetyl-L-cysteine (Sigma-Aldrich, cat. A9165), 10 mM nicotinamide (Sigma-Aldrich, cat. N0636), 1X B-27 supplement (Thermo Fisher Scientific, cat. 17504044), 1X N-2 supplement (Thermo Fisher Scientific, cat. 17502048), 10 microM Y-27632 dihydrochloride (Tocris Bioscience, cat. 1254), and 50 ng/mL human EGF recombinant protein (Thermo Fisher Scientific, cat. PHG0311). The 485176-168-R4-J1-PDC line was cultured in Panc media, which includes all 6C/Colon 1B media components plus 100 ng/mL human FGF-10 (Thermo Fisher Scientific, cat. 100-26), 500 nM SB-431542 (Selleckchem, cat. S1067), and gastrin (Tocris, cat. 3006).
[…]
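Note: spheroids exposed to the agents for seven days before readout.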
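Throughout, for viability, T/C: percent viability relative to DMSO vehicle control wells = 100%.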

SMILES	viability, T/C (compound alone 0.1 µM)	viability, T/C (compound alone 1 µM)	viability, T/C (compound alone 3.16 µM)	viability, T/C (compound alone 10 µM)	viability, T/C (compound alone 0.0316 µM)	IC50 (compound alone, run of 02/20/2024)
Cc1[nH]c2ccc(F)cc2c1-c1nc2c3cccnc3c3ncccc3c2[nH]1	101 (2×), 117, 83.5, 87, 103, 99, 104, 95, 87.9, 87.5, 93.8%	83.7, 90.3, 89, 90.5, 103 (2×), 87.2, 81.2, 88, 104, 114, 119%	73.7, 88.5, 88.3, 92.4, 78.1, 83.7, 86.2, 84.1, 106, 112, 87.3, 98.2%	65.8, 75, 73.6, 96.5, 95.6, 97.6, 99.2, 74.6, 89.5, 95.5, 76.5, 106%		
Cc1cnc(CNC(=O)c2c(=O)c3ccc(N4CCCN(C)CC4)nc3n3c2sc2ccccc23)cn1	105, 99.7, 83.8, 91.7, 90.5, 89.4, 102, 101, 109, 115, 80.3, 120%	93.7, 89.1, 79.2, 97.5, 93.5, 82.6, 97, 75.9, 101, 98.2, 104, 99.7%	75.5, 80, 67.9, 68.7, 71, 68.3, 88.4, 58.2, 73, 86.7, 79, 69.4%	32.1, 64.9, 0.34, 0.39, 0.41, 13.5, 51.6, 16.2, 68.9, 15.2, 60.8, 27.5%	96, 104 (2×), 121, 92, 88.2, 118, 102, 88.4, 109, 99.1, 98.4%	6.22 µM, 3.92 µM, 4.33 µM, 4.46 µM, 4.61 µM, 3.84 µM, > 10 µM, 5.64 µM, 5.38 µM
CN(C)c1ccc(Nc2c3ccc(NC(=O)CCN4CCCC4)cc3nc3cc(NC(=O)CCN4CCCC4)ccc23)cc1	98.9, 91.1, 86.1, 104 (2×), 102, 78.3, 99.9, 109, 91.9, 101, 98.6%	99.6, 79, 94.4, 100, 114, 88.1, 91.5, 103 (2×), 92.4, 86.6, 92.6%				
